Source: patent US11130803B2, “Isoform-selective TGFβ1 inhibitors and use thereof” (Scholar Rock, Inc., priority 2018, dated 2021)

Assays:
[1] = target: T1, recombinant human LRRC33-proTGFβ1 complex (Homo sapiens, UniProt P01137); assay: Octet (Biolayer Interferometry) in vitro kinetic binding; conditions: in M
T1 construct: made in house
Source text: (§1) Biolayer Interferometry (BLI):BLI is a label-free technology for optically measuring biomolecular interactions, e.g., between a ligand immobilized on the biosensor tip surface and an analyte in solution. BLI provides the ability to monitor binding specificity, rates of association and dissociation, or concentration, with precision and accuracy. BLI platform instruments are commercially available, for example, from ForteBio and are commonly referred to as the Octet® System.
(§2) BLI-based binding assays are widely used in the art for measuring affinities and kinetics of antibodies to antigens. It is a label-free technology in which biomolecular interactions are analyzed on the basis of optical interference. One of the proteins, for example, an antibody being tested, can be immobilized on the biosensor tip. When the other protein in solution, for example, an antigen, becomes bound to the immobilized antibody, it causes a shift in the interference pattern, which can be measured in real-time. This allows the monitoring of binding specificity, rates of association and dissociation, as well as concentration dependency. […] Due to its ease of use and fast results, BLI-based assays such as the Octet® system (available from ForteBio/Molecular Devices, Fremont Calif.), are particularly convenient when used as an initial screening method to identify and separate a pool of “binders” from a pool of “non-binders” or “weak binders” in the screening process.
(§3) Table 8 below provides non-limiting examples of high-affinity, context-independent proTGFβ1 antibodies encompassed by the present invention. The table provides representative results from in vitro binding assays, as measured by Octet®.
(§4) Column (A) of the table lists monoclonal antibodies with discrete amino acid sequences. […] Columns (B), (D), (E) and (F) provide affinities of each of the listed antibodies, measured in KD. […] Average KD values of (B) and (C) are shown in the corresponding column (D), which collectively represents affinities of the antibodies to ECM- or matrix-associated proTGFβ1 complexes. […] Finally, relative ratios between the average KD values from columns (D) and (G) are expressed as “fold bias” in column (H). […] This is one way of quantitatively representing and comparing inherent bias of antibodies to their target complexes. […]
(§5) In some embodiments, the binding affinity of an antibody, or antigen binding portion thereof, to an antigen (e.g., protein complex), such as presenting molecule-proTGFβ1 complexes, is determined using an Octet assay. […] For example, binding affinities of antibodies may be determined using the fortéBio Octet QKe dip and read label free assay system utilizing bio-layer interferometry. […]

[2] = target: T2, recombinant human LTBP3-proTGFβ1 complex (Homo sapiens, UniProt P01137); assay: as above; conditions: in M
T2 construct: made in house; host or cells: Expi293F cells, transient co-transfection
Source text: as §1, §2, §3, §4, §5

[3] = target: T3, recombinant human GARP-proTGFβ1 complex (Homo sapiens, UniProt P01137); assay: as above; conditions: in M
T3 construct: made in house
Source text: as §1, §2, §3, §4, §5

[4] = target: T4, recombinant human LTBP1-proTGFβ1 complex (Homo sapiens, UniProt P01137); assay: as above; conditions: in M
T4 construct: made in house; host or cells: Expi293F cells, transient co-transfection
Source text: as §1, §2, §3, §4, §5

[5] = test system: matrix-associated (LTBP1/LTBP3) and cell-associated (GARP/LRRC33) proTGFβ1 complexes; assay: Octet: average KD and fold bias, matrix- vs cell-associated complexes; format: binding, human; conditions: average KD of (B) and (C), read-out: (D) ECM AVRG
[6] = test system: matrix-associated (LTBP1/LTBP3) and cell-associated (GARP/LRRC33) proTGFβ1 complexes; assay: as above; format: binding, human
Source text: Column (A) of the table lists monoclonal antibodies with discrete amino acid sequences. […] Columns (B), (D), (E) and (F) provide affinities of each of the listed antibodies, measured in KD. […] Average KD values of (B) and (C) are shown in the corresponding column (D), which collectively represents affinities of the antibodies to ECM- or matrix-associated proTGFβ1 complexes. Similarly, Average KD values of (E) and (F) are shown in the corresponding column (G), which collectively represents affinities of the antibodies to cell-surface or cell-associated proTGFβ1 complexes. Finally, relative ratios between the average KD values from columns (D) and (G) are expressed as “fold bias” in column (H). […] This is one way of quantitatively representing and comparing inherent bias of antibodies to their target complexes.
Average KD values between the two matrix-associated and cell-associated complexes are calculated, respectively (see columns (D) and (G)). These average KD values can then be used to ask whether bias in binding activities exists between complexes associated with matrix vs. complexes associated with cell surface (e.g., immune cells). Bias may be expressed as “fold-difference” in the average KD values, as illustrated in Table 8.

T2 sequence (P01137 30-390): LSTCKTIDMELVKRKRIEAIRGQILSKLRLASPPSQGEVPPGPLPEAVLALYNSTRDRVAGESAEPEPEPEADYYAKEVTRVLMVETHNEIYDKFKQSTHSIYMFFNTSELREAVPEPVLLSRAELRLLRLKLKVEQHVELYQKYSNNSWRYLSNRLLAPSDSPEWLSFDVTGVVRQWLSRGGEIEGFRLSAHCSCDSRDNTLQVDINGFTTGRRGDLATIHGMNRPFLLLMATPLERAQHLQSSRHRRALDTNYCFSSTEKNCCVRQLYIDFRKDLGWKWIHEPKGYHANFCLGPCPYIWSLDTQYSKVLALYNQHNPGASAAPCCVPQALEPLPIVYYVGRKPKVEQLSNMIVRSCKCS
T2 sequence (Q9NS15 866-1039 partner limits assumed): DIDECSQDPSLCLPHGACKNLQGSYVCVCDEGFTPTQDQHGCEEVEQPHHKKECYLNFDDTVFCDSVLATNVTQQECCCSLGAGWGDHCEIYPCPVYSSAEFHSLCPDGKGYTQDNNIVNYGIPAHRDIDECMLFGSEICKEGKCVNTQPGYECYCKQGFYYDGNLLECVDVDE
T3 sequence (P01137 30-390): as the sequence (P01137 30-390) above
T3 sequence (Q14392 20-627 partner limits assumed): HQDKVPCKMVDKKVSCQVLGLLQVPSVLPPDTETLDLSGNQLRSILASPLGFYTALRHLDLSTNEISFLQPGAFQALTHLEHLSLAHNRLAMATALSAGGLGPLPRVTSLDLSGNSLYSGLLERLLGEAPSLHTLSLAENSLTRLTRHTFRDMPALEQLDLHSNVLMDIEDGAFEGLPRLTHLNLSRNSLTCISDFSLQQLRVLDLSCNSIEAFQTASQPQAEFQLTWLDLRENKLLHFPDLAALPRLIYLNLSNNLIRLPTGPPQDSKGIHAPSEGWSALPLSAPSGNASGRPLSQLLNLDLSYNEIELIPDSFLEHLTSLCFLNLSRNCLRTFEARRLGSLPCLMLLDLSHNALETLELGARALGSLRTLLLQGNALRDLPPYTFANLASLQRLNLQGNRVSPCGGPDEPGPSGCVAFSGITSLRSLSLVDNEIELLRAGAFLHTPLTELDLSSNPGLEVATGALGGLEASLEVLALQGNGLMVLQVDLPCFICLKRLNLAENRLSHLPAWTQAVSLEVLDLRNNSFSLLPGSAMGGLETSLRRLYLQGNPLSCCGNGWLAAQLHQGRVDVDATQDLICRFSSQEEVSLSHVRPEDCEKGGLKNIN
T4 sequence (P01137 30-390): as the sequence (P01137 30-390) above
T4 sequence (Q14766 873-1507 partner): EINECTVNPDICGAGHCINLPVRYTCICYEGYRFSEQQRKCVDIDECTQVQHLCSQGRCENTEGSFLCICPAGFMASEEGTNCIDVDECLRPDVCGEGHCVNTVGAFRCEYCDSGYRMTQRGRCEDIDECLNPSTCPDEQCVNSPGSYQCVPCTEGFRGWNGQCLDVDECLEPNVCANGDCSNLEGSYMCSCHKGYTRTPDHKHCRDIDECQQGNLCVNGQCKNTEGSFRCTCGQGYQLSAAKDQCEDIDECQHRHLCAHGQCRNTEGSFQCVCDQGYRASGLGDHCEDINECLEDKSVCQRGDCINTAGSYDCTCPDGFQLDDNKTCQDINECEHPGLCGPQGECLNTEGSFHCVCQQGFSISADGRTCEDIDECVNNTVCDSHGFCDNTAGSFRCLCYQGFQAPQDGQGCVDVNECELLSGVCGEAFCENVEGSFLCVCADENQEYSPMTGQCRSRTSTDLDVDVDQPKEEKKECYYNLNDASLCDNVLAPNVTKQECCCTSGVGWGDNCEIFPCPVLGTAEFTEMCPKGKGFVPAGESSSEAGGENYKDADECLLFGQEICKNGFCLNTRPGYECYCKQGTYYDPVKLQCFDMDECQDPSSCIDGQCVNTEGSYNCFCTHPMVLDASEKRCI
T1 sequence (P01137 30-390): as the sequence (P01137 30-390) above
T1 sequence (Q86YC3 19-650 partner limits assumed): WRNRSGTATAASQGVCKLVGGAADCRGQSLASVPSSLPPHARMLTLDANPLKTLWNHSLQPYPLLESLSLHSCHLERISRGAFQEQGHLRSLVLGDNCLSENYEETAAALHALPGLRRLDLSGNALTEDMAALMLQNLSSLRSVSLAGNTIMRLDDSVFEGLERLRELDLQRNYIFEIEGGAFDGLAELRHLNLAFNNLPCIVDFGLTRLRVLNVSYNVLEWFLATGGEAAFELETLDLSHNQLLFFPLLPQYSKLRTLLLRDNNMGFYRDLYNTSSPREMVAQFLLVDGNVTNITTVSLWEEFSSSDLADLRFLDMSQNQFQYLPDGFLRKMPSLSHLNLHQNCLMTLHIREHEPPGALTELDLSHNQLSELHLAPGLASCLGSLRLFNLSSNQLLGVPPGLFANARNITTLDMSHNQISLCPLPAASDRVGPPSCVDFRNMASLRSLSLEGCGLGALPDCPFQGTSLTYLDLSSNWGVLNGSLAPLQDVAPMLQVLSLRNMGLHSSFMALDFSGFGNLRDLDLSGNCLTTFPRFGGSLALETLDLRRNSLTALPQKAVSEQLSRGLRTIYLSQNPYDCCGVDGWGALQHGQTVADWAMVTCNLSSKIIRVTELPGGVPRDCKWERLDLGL

B1: Ab10: monoclonal antibody; VH SEQ ID NO: 239, VL SEQ ID NO: 240 (antibody, V domains shown)
VH: EVQLLESGGGLVQPGGSLRLSCAASGFTFRNYAMSWVRQAPGKGLEWVSSISGSGGATYYADSVKGRFTISRDNSKNTLYLQMNSLRAEDTAVYYCARVSSGHWDFDYWGQGTLVTVSS
VL: DIQMTQSPSSLSASVGDRVTITCQASQDISNSLNWYQQKPGKAPKLLIYDASNLETGVPSRFSGSRSGTDFTFTISSLQPEDIATYYCQQAPNLPFTFGGGTKVEIK
(F) hLRRC33, Cell-associated proTGFb1 (KD) [1]: 1.06E−09 | (C) hLTBP3, Matrix-associated proTGFb1 (KD) [2]: 3.19E−10 | (E) hGARP, Cell-associated proTGFb1 (KD) [3]: 1.02E−08 | (B) hLTBP1, Matrix-associated proTGFb1 (KD) [4]: 2.62E−10 | Kd [5]: 0.29 nM | Kd ([6]; average KD of (E) and (F), cell-associated complexes, read-out: (G) Cell AVRG): 5.63 nM | (H) G/D (fold bias) ([6]; ratio of average KD cell-associated / matrix-associated): 19.38 fold

Read-outs that look alike come from different tables or passages of the source.
